About 910 (0.23%) of roughly 390,000 compounds were called active. Inconclusive results (about 5%) are left out. The call rests on the fitted dose curve; in most records, active means well fitted inhibition curve with a large enough effect; inconclusive means small, poorly fitted or top-dose-only effect; inactive means no such curve, though single readings can be large or run the other way. The list shows a part of the results, in another mix than the full data.
On the % scale 0 is the no-effect control and ±100 the full control effect; potency means the concentration at half of the fitted maximal effect.

Sequence of UniProt O94782 (O94782 whole entry, looked up): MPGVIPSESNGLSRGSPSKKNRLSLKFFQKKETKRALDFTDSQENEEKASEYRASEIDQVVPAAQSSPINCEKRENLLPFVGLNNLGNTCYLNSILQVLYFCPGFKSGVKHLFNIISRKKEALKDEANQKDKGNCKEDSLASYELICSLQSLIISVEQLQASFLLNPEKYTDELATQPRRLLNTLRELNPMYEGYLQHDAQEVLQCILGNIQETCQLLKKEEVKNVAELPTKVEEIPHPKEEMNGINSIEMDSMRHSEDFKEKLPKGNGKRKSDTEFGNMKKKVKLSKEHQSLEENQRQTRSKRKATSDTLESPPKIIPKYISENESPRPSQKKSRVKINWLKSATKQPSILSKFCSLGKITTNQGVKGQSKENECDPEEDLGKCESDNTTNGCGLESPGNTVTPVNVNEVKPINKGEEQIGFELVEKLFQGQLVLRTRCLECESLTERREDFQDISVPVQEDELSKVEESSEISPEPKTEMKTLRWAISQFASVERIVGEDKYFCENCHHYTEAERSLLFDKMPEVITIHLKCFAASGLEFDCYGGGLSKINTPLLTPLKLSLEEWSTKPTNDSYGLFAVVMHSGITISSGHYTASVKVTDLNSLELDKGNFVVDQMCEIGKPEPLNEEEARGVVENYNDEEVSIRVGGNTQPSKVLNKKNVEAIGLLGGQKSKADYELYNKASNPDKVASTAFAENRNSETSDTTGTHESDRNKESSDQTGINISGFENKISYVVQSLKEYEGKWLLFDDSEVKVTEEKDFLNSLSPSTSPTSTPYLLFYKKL

The test has as its target Ubiquitin carboxyl-terminal hydrolase 1 (Homo sapiens) (UniProt O94782). In words: Inhibitors of USP1/UAF1: Primary Screen. Further: nearly all actives have a fitted effect of over 60% in size. The settings on record: recombinant USP1/UAF1, Ub-Rhodamine cleavage fluorescence; activity change, negative = inhibition: at 57.1 µM (top of the series). An outline of the steps:
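USP1/UAF1 complex (1 nM) preincubated 15 min at room temperature with compound, then Ub-Rho substrate (150 nM final) added. Kinetic fluorescence at 480/540 nm over 6 reads at 60 s intervals; 50 mM HEPES pH 7.8, 0.5 mM EDTA, 0.1 mg/ml BSA, 1 mM TCEP, 0.01% Tween-20.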
As for `C[C@@H]1CN([C@@H](C)CO)C(=O)CCCn2nncc2CO[C@@H]1CN(C)S(=O)(=O)c1ccc(-n2cccn2)cc1`, the “activity change, negative = inhibition” value is inactive: -11.1%.

As for `Nc1ccn(C2CC(O)C(CO)O2)c(=O)n1` (configuration not stated), the “activity change, negative = inhibition” value was inactive: -15.3%. As to `CC(=O)c1ccc(NC(=O)C2=CC(c3cccs3)=NS(=O)(=O)N2C)cc1`, the “activity change, negative = inhibition” value was inactive: -9.87%. With `C[C@@H]1CN([C@H](C)CO)C(=O)c2cc(Br)cnc2O[C@H]1CN(C)Cc1ccccc1`, the “activity change, negative = inhibition” value was inactive: 29.1%. Consider `N#Cc1ccc(/C=C\c2nccc3c2[nH]c2ccccc23)cc1`, for which the Potency was active: 22.4 µM. On the same count and under the same terms, for `N#C/C(=C\c1ccc(N2CCCCC2)o1)C(=O)Nc1cccc(Br)c1` the value was active: 28.2 µM. With `OCC[C@H]1C[C@@H](O)[C@H](O)[C@]2(CCCCO2)O1`, the “activity change, negative = inhibition” value was inactive: -15.2%. On the same count and under the same terms, to `CC(C)(C)OC(=O)C[C@@H]1C/C=C\C[C@@H](CC(=O)N[C@H](CO)Cc2ccccc2)C(=O)NC[C@@H](c2ccccc2)OC1=O` belongs inactive: -30.8%. Still for that read-out and setting: to `C=CCC[C@@H](Cc1ccc(F)cc1)C(=O)OC[C@@H](Cc1c[nH]c2ccccc12)NC(=O)[C@@H](CC=C)CC(=O)NCCO` belongs inactive: -22.6%; to `O=C(NCc1nc2ccccc2[nH]1)C1=C[C@H](c2csc3ccccc23)C[C@H](OCc2ccc(CO)cc2)O1`, inactive: -27%. As to `O=C(C[C@@H]1C/C=C\CC[C@H](Cc2ccc(F)cc2)C(=O)OC[C@@H]2CCCN2C1=O)N[C@H](CO)Cc1ccccc1`, the “activity change, negative = inhibition” value is inactive: -17.8%. As for `O=C(O)c1cc(O)c2c(c1)[C@H]([C@H]1c3cc(C(=O)O)cc(O)c3C(=O)c3c(O[C@@H]4O[C@H](CO)[C@@H](O)[C@H](O)[C@H]4O)cccc31)c1cccc(OC3O[C@H](CO)[C@@H](O)[C@H](O)[C@H]3O)c1C2=O` (some centres not stated), the Potency was active: 7.08 µM. Turning to `C[C@@H]1CN([C@@H](C)CO)C(=O)CCCn2nncc2CO[C@H]1CN(C)S(=O)(=O)c1ccc(Cl)cc1`, the “activity change, negative = inhibition” value was inactive: -23.8%. In the case of `COc1ccc([C@@H]2CC(=O)c3c(O)cc(O[C@@H]4OC(CO[C@@H]5OC(C)[C@H](O)[C@@H](O)[C@H]5O)[C@@H](O)[C@H](O)[C@H]4O)cc3O2)cc1O` (some centres not stated), the “activity change, negative = inhibition” value is inactive: 3.75%. On the same count and under the same terms, for `CC(C)c1ccc(CN(C(=O)c2cc3ccccc3oc2=O)C2CCS(=O)(=O)C2)cc1` (configuration not stated) the value was inactive: -11.1%. The same measure, in the same setting: for `CCc1ccc(Nc2nc(N)nc(CSc3nc4ccccc4s3)n2)cc1` the value was inactive: -18.9%; for `NC1=NC[C@@H](Cc2ccc(O)cc2)N1CCc1cccc2ccccc12`, inactive: -22%; for `COc1ccc(/C=C2\SC(=S)N(CCCC(=O)Nc3cc(C)on3)C2=O)cc1OC`, inactive: 40.6%.

As for `C[C@H](CO)N1C[C@H](C)[C@@H](CN(C)S(=O)(=O)c2ccccc2C#N)OCc2cnnn2CCCC1=O`, the “activity change, negative = inhibition” value was inactive: -17.8%.

`C[C@H]1CN(S(=O)C(C)(C)C)[C@H](CCO)/C1=C\c1ccccc1` (some centres not stated): the “activity change, negative = inhibition” value is inactive: 1.12%. Still for that read-out and setting: to `CC(=O)Oc1c(/C=C(\C#N)C(N)=O)[nH]c2ccccc12` belongs inactive: 33%. The same measure, in the same setting: to `COC(=O)c1cc2sccc2n1Cc1nc(-c2ccc(Cl)cc2)oc1C` belongs inactive: -10.9%. The same measure, in the same setting: to `COCCCNC(=O)c1ccc2c(=O)n(Cc3ccc(OC)cc3)c(=O)[nH]c2c1` belongs inactive: -17.1%; to `O=C(C1CCCN(S(=O)(=O)c2ccc(Br)s2)C1)N1CCN(c2ccccc2)CC1` (configuration not stated), inactive: -12.8%.

As for `C[C@@H]1CN([C@H](C)CO)C(=O)CCCn2nncc2CO[C@H]1CN(C)C(=O)c1cc(-c2ccccc2)on1`, the “activity change, negative = inhibition” value is inactive: -21%. Still for that read-out and setting: to `COC(=O)[C@H]1[C@H]2C[C@H]3c4[nH]c5ccccc5c4CCN3C[C@@H]2CC[C@@H]1O` belongs inactive: -25.7%; to `Cc1cccc(N=Nc2c(O)[nH]c3ccc(F)cc23)c1`, inactive: 31.5%; to `C[C@@H]1CCC[C@@]2(O[C@@H](CCO)C[C@@H](O)[C@@H]2O)O1`, inactive: 2.3%. As to `C[C@@H]1C=C(C(=O)NC2CC2)O[C@H](OCc2ccc(CO)cc2)C1`, the “activity change, negative = inhibition” value was inactive: -16.3%.

In the case of `Cc1cccc(N2CCN(C(=O)c3nn(C)c4c3CS(=O)(=O)c3ccccc3-4)CC2C)c1` (configuration not stated), the “activity change, negative = inhibition” value was inactive: -8.79%. Same read-out and setting: to `Cc1ccc(-n2c(-c3ccco3)nc3c(cnn3-c3ccc(C)cc3)c2=O)cc1` belongs inactive: -10.7%; to `CCN1C(=O)[C@H]2[C@@H](c3ccc(SC4CCCCC4)cc3)N3CCCC[C@@]3(C(=O)OC)[C@H]2C1=O`, inactive: -8.61%. The same measure, in the same setting: to `CCn1c(C)cc(C=C2C(=O)c3ccccc3C2=O)c1C` belongs inactive: 314%; to `COc1ccc([C@@H]2CC(=O)c3c(O)cc(O[C@@H]4O[C@H](CO[C@@H]5O[C@@H](C)[C@H](O)[C@@H](O)[C@H]5O)[C@@H](O)[C@H](O)[C@H]4O)cc3O2)cc1O`, inactive: -0.42%; to `C=CC[C@@H](CC(=O)N(CCO)Cc1ccccc1)C(=O)N[C@H](COC(=O)[C@@H](CC=C)CC(=O)OC(C)(C)C)c1ccccc1`, inactive: -7.8%.

As for `C(=N\NC1=Nc2cccc3cccc1c23)/c1ccccc1`, the “activity change, negative = inhibition” value is inactive: 38.3%. The same measure, in the same setting: for `CCOc1ccc(-c2nc(CSCC(=O)NCc3ccc(C)cc3)c(C)o2)cc1` the value was inactive: 33.5%; for `OCC[C@@H]1C[C@H](O)[C@@H](O)[C@]2(CCCO2)O1`, inactive: 12.5%.

For `O=C(O)c1ccc(-c2ccc(/C=c3/sc4nc5ccccc5n4c3=O)o2)cc1Cl`, the Potency was active: 28.2 µM. As for `CCOC(=O)[C@@H]1[C@H]2COc3ccc(Br)cc3[C@H]2N2C(=O)N(c3ccc(C(F)(F)F)cc3)C(=O)[C@]12C`, the “activity change, negative = inhibition” value was inactive: -21.3%. On to `COC(C/C=C/[C@H](O)COCc1ccccc1)OC`, for which the “activity change, negative = inhibition” value was inactive: -21.4%. On the same count and under the same terms, for `COc1ccc([C@H]2C[C@H](n3cc(-c4ccc(F)cc4)nn3)[C@@H](O)CN2CC2CCCCC2)cc1` the value was inactive: -11.9%. For `COc1ccc(S(=O)(=O)/N=C2\C=C(Nc3ccc(O)cc3)C(=O)c3ccccc32)cc1`, the Potency was active: 7.08 µM. `Cc1ccc(NC(=O)Nc2nnc(SCC(=O)N3CCC(C)CC3)s2)cc1`: the “activity change, negative = inhibition” value was inactive: 16.7%.

Consider `Cc1[nH]c2ccccc2c1/C=C/c1nc2ccccc2c(=O)n1CCO`, for which the “activity change, negative = inhibition” value is inactive: 75.2%. The same measure, in the same setting: to `COc1ccc(NC(=O)CN2C(=O)COc3ccc(S(=O)(=O)N4CCOCC4)cc32)cc1Cl` belongs inactive: -28.9%; to `COc1ccccc1C(=O)NC(=O)Nc1ccc(-n2nc(C(F)(F)F)cc2C(F)(F)F)cc1`, inactive: 59.3%. `O=[N+]([O-])c1ccc(C=Nc2cccc3ccccc23)s1`: the Potency is active: 14.1 µM.

In the case of `Nc1ccc(N2CCOCC2)c2nonc12`, the Potency was active: 17.8 µM.

For `COc1ccc(OC)c(C2=NS(=O)(=O)N(C)C(C(=O)Nc3ccc(C(C)=O)cc3)=C2)c1`, the “activity change, negative = inhibition” value was inactive: -22.7%. Turning to `COCCN(C(=O)COC(=O)/C=C/c1ccc2c(c1)OCO2)c1c(N)n(Cc2ccccc2)c(=O)[nH]c1=O`, the “activity change, negative = inhibition” value is inactive: -13.1%. As to `CCn1c(=O)c(C(=O)Nc2cccnc2)c(O)c2ccccc21`, the “activity change, negative = inhibition” value is inactive: -3.41%.

These data come from PubChem BioAssay AID743255 (National Center for Advancing Translational Sciences (NCATS), 2014).
